Out of some 310,000 compounds screened, about 2,200 (0.71%) showed an effect of 50% or more. Effects have a minus sign here. Some of the results follow.
Each compound was assayed against human ether-à-go-go-related gene (hERG) potassium channel (human, UniProt Q12809) (assay: primary screen, population patch clamp on CHO cells stably expressing hERG).
Sequence of human ether-à-go-go-related gene (hERG) potassium channel (Q12809 whole entry, looked up): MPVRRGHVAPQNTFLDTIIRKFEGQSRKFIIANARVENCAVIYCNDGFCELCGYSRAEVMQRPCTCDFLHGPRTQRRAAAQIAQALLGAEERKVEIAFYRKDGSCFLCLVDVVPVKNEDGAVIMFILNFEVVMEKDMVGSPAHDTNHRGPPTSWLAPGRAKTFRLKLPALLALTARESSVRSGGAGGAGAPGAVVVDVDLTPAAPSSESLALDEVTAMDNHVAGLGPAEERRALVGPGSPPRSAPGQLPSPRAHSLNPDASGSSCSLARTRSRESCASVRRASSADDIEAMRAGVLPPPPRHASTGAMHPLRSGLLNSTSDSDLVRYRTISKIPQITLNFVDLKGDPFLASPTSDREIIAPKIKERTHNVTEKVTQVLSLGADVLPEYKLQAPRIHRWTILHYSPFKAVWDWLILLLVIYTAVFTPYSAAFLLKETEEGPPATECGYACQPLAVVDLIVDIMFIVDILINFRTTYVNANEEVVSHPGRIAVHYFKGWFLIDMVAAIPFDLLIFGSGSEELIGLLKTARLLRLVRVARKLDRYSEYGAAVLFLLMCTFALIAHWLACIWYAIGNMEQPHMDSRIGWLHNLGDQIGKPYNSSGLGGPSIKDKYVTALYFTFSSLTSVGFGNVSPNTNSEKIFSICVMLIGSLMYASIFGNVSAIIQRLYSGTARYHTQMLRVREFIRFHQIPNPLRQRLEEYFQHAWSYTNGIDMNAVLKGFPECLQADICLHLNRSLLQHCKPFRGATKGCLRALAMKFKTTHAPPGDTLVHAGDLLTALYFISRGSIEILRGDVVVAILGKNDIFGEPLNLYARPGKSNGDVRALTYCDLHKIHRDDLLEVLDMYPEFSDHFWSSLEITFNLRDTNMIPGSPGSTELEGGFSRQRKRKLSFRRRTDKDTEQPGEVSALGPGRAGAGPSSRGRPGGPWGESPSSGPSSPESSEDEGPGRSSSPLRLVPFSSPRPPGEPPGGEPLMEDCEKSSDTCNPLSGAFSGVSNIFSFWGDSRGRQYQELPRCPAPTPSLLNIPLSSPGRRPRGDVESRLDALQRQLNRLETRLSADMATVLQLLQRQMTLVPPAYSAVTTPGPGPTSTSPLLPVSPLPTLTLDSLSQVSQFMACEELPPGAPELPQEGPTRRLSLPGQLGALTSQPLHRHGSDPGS

| SMILES | hERG current change (%, negative = inhibition) at 1uM [%] |
| --- | --- |
| Cc1nn(-c2ccccc2)c(C)c1NS(=O)(=O)c1ccccc1 | 3.04 |
| O=C(C[n+]1cc(Br)cc2ccccc21)c1ccccc1.[Br-] | 9.44 |
| CN(C)c1ccc(C(O)P(=O)(OC2CCCCC2)OC2CCCCC2)cc1 (stereo not drawn) | 13.3 |
| CCOC(=O)c1c(C)c(C(=O)NCC2CCCO2)c(C)n1C (stereo not drawn) | 13.7 |
| Cc1cc(NC(=O)CCC(=O)N(Cc2ccco2)C(C(=O)NC2CCCC2)c2ccccc2)no1 (stereo not drawn) | 1.95 |
| O=C(/C=C/c1ccc([N+](=O)[O-])cc1)NNC(=O)C1CC1 | 1.2 |
| CCOC(=O)c1ccc(NCCc2ccc(OC)c(OC)c2)c(N)c1 | 7.71 |
| O=C(O)c1ccc2c(c1)CCCN2 | 13 |
| COC(=O)C1C(=O)C(C(=O)/C=C/c2ccccc2)C(=O)CC1(C)C (stereo not drawn) | 15.1 |
| Cc1ccc(NC(=O)CNC(=O)c2ccco2)cc1 | 14.7 |
| O=C(NCC1CCCCC1)c1ccc(F)c(S(=O)(=O)N2CCOCC2)c1 | 2.63 |
| CCN(CC)c1nc(C)c(C(=S)Nc2cc([N+](=O)[O-])ccc2Cl)s1 | 5.14 |
| COc1ccc(CN(CC(=O)NCc2ccc(F)cc2)C(=O)c2ccco2)cc1 | -12 |
| O=C(O)C(=O)O.O=C(c1ccco1)N1CCN(CC2CC3C=CC2C3)CC1 (stereo not drawn) | -5.37 |
| CCC(C)(CCNC(=O)Cc1ccccc1)c1ccccc1OC (stereo not drawn) | -9.88 |
| CC(=O)Nc1ccc(S(=O)(=O)NCCC(=O)NCCc2ccc(F)cc2)cc1 | 9.6 |
| COc1cc(C(=O)Nc2nc(N)n(-c3ccccc3)n2)cc(OC)c1OC | 3.39 |
| CCOC(=O)C1=C(C)N(c2ccccc2)C(=O)/C1=C\c1ccc(O)c(OC)c1 | 2.6 |
| CCCn1c(O)c(CN2CCCC(C)C2)c(C)c(C#N)c1=O (stereo not drawn) | 8.81 |
| COCCN(C(=O)COC(=O)CCS(=O)(=O)c1ccccc1)c1c(N)n(Cc2ccccc2)c(=O)[nH]c1=O | -2.21 |
| O=C(O)CN1CCN(Cc2ccc(Cl)cc2)C1=O | -7.06 |
| COC(=O)[C@H](C)[C@H]1C[C@]1(C)[C@H](NC(=O)OCc1ccccc1)c1ccccc1 | 8.14 |
| O=[N+]([O-])c1cccc(/C=N/N2CCN(Cc3ccccc3)CC2)c1 | 14.4 |

| SMILES | hERG current change (%, negative = inhibition) at 1uM [%] |
| --- | --- |
| COCc1cc(C)nc2sc(C(=O)N3CCCCC3)c(N)c12 | 1.53 |
| O=S(=O)(NCc1ccco1)c1ccc2c(c1)Cc1ccccc1-2 | -1.55 |
| Cc1ccc(NC(=O)c2ccc(C)c(S(=O)(=O)N3CCOCC3)c2)nc1 | 12.9 |
| COc1cccc(-c2noc(C3CCCN(C(=O)c4ccc(F)cc4)C3)n2)c1 (stereo not drawn) | 11.4 |
| COc1ccccc1/C=N/n1cnnc1 | 11.1 |
| CCCN1C(=O)COc2ccc(-c3n[nH]c(=O)c4ccccc34)cc21 | 17.8 |
| Cc1nn(Cc2ccccc2)c(Cl)c1C(=O)Nc1ccc(OC(F)(F)F)cc1 | 14.6 |
| CC(=O)Nc1ccc(C2CN(C)CC2C(=O)c2ccc(Cl)cc2)cc1 (stereo not drawn) | -6.1 |
| CCOC(=O)c1sc2nc(C)cc(-c3ccccc3)c2c1N | -0.469 |
| Nc1nnc(SCC(=O)Nc2cc(S(=O)(=O)N3CCOCC3)ccc2Cl)s1 | -1.36 |
| COC(=O)[C@@H]1C[C@H]1[C@@H](NS(=O)(=O)c1ccccc1)c1ccccc1 | 3.44 |
| CN(CC(=O)Nc1cccc(F)c1)C(=O)c1cccnc1Sc1ccccc1Cl | 1.49 |
| Cn1ccnc1-c1nnn(-c2ccc(F)cc2)n1 | 12.1 |
| CCCCn1c(=O)c(C(=O)NCc2ccccc2Cl)c(O)c2ccccc21 | 14.4 |
| COCC(C)n1c(SCC(=O)N2CCc3ccccc3C2)nc2ccccc2c1=O (stereo not drawn) | -0.208 |
| CNc1ccccc1C(=O)OCC(=O)c1ccccc1 | 18.2 |
| Cc1cccc(N2C(=O)CN=C2Nc2nc(C)cc(C)n2)c1 | -2.73 |
| COc1ccc(-n2c(CNC(=O)c3cc(OC)c(OC)c(OC)c3)n[nH]c2=S)cc1 | 5.95 |
| COc1ccc(C(=O)N[C@H](C(=O)N2CCN(c3ccccc3F)CC2)C(C)C)cc1 | -2.54 |
| COc1cc(OC)cc(C(=O)N2CCN(c3ncccn3)CC2)c1 | -11.2 |
| Cc1cc(O)cc(C)c1NS(=O)(=O)c1ccc2ccccc2c1 | 6.15 |
| Cc1ccc(C(=O)NCc2ccccc2)c(F)c1F | 6.49 |
